# Over roughly 33,000 sequences, “E-score (-0.5 to 0.5)” has its median near -0.016; the highest 2% begin near 0.32. This is one part of the list.
# Target: T1, Stp1 (UniProt B3LFK1)
# T1 sequence: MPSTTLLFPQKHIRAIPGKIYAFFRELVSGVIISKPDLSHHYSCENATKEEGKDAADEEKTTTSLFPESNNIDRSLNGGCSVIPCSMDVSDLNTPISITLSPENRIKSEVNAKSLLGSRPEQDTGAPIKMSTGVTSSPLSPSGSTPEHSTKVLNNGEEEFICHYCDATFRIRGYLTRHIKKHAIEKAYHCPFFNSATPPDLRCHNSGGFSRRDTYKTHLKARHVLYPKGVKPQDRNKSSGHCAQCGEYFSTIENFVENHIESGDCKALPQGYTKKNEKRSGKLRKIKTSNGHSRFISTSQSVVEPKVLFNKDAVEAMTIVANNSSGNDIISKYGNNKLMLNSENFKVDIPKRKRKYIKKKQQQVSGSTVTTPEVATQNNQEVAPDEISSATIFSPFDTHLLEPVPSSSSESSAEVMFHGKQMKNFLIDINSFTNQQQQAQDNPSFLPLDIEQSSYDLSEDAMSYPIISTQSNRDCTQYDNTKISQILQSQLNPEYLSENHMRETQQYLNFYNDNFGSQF
# Assay: PBM E-score (8-mer binding enrichment) (E-score (-0.5 to 0.5)); higher = stronger / more preferred TF binding; most listed sequences are background and not binding sites
# Details: protein concentration: 200 nM; construct: GST-full length
# Summary of the method: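 E-scores (a modified Wilcoxon-Mann-Whitney statistic) were assigned by the Universal PBM Analysis Suite to every ungapped eight-base word pooled with its reverse complement. The input came from universal all-10-mer Agilent arrays made double-stranded by primer extension and probed with GST-tagged yeast transcription factors at about 100-200 nM. Fluorescent anti-GST detected bound protein, and masliner normalised the scans.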
row,Sequence,PBM E-score
1,CTTTACTA,0.193
2,CCGTGAAA,0.183
3,CCTCTTCA,-0.00988
4,ATAAGTAA,0.118
5,ATAAATAA,0.302
6,CAATGGAA,0.0796
7,GTGAGCCA,0.00543
8,CCGGTCCC,-0.22
9,ATTACGAG,0.0563
10,TCGTCACA,0.0525
11,AGAAAAAC,0.0418
12,CTCTTAGA,0.015
13,CACATGCG,0.0837
14,ACATCATA,-0.0287
15,CCATCCCC,-0.148
16,AGATTATG,0.0136
17,AATTAGCC,0.136
18,AGCGTGGG,-0.291
19,GGCCACGA,0.0462
20,CCCACTGC,0.0181
21,CAGCCCAA,-0.106
22,TAGCTCCA,-0.0885
23,CGAACCGA,0.101
24,AGTGGCGG,-0.0409
25,TCGTGCCA,0.177

row,Sequence,PBM E-score
1,CAGGGACG,-0.108
2,TCGGCCAA,-0.055
3,CGAATGGC,0.181
4,CACTAGCA,-0.182
5,ATGGGCTG,-0.25
6,AGATACGA,0.0642
7,TACCAAAA,0.11
8,CATTCTTC,-0.0959
9,GTAACGAC,0.0501
10,AACTAAAT,0.0174
11,ACAGGCCC,-0.35
12,AATCACCA,0.0585
13,CCACTTTC,-0.21
14,CCTTTGAA,-0.0337
15,CATAGTAA,0.108
16,TCGCCACA,0.21
17,CGTGATTC,-0.0502
18,ACGGGGGC,-0.325
19,ACTATCAC,-0.0551
20,AAGGTACT,-0.0149
21,CTGTGGCA,0.0462
22,TAGATCCA,0.0726
23,GGGGCCGA,-0.309
24,CAAAGTGC,0.106
25,GATCCTAC,-0.1

row,Sequence,PBM E-score
1,CGCCACAA,0.115
2,ACTCCCCT,-0.277
3,ATCGCGAT,0.171
4,CCAGACAG,-0.13
5,TGGTGACA,-0.0418
6,CGCTGGTC,-0.169
7,ATCTCTGG,-0.258
8,AGGTGTAA,0.0291
9,CATATATC,0.0255
10,AAGTACCC,-0.132
11,GAGGCGGA,-0.00688
12,CCAACAGC,-0.0402
13,ACTCGTAA,0.115
14,CCTGTTAG,0.0323
15,ATCTGGCG,-0.0788
16,CGTGAATA,0.0929
17,GACCTTAC,0.0257
18,AACGTCCA,-0.0451
19,AAGATCTA,-0.146
20,CGGATTAG,0.0588
21,GCGGCTGA,0.0916
22,TCCGCAAA,0.015
23,ATTGGCGG,-0.156
24,CGGAAGCA,0.153
25,ACCCCAAG,-0.104

row,Sequence,PBM E-score
1,ATCGGACA,-0.0855
2,CCCTATAC,-0.168
3,CCCGGTGC,-0.17
4,ATGGAGCG,0.19
5,ATCTAACA,-0.0427
6,CCAACGGC,0.316
7,GGGAAGGA,-0.233
8,CGGCGGTA,0.335
9,GTTATAGA,0.182
10,AAAAAATG,0.218
11,TAGTGAGA,0.081
12,AACTCACG,0.142
13,GGAGTCCC,-0.259
14,TAGTTCAA,0.0302
15,CCTATACG,-0.0105
16,AGTGGTCG,-0.236
17,CATATGAG,0.0378
18,TAGCCTAA,-0.0614
19,ACTGGTGC,0.279
20,GAGGCGGC,0.374
21,GTAGGGAC,0.0592
22,ACCAAGAC,-0.0197
23,ATCCGAAA,-0.00635
24,GGCAGGAA,0.0319
25,GTACGGTA,0.147

row,Sequence,PBM E-score
1,AGCGGACG,0.12
2,AGTCTCCC,-0.272
3,CTCTTCGA,-0.0286
4,CCGCGAGG,0.294
5,GGGCGAGA,-0.132
6,TCAATTCA,-0.0185
7,GCCTCCTA,0.00877
8,CCCTTCCC,-0.243
9,CGCTGAAA,0.0896
10,AGCTATAT,0.0574
11,AAGTGCCG,0.453
12,CTAAGACC,-0.176
13,CTCCATAA,-0.164
14,GCTGGACA,-0.101
15,TGGGACCA,-0.282
16,AGAGCCAA,0.0298
17,AAAAAACC,-0.0654
18,ACTAAATG,-0.0582
19,GAGTAAAA,0.114
20,AAGCTGGG,-0.164
21,AGTGCCAC,0.242
22,AAAACCGG,0.0827
23,AGATGTCC,-0.121
24,CAGGAAGC,0.0679
25,GCGTGCAA,-0.159

row,Sequence,PBM E-score
1,GCCCACGA,-0.117
2,ACTATGTA,-0.00696
3,ATGACTTG,-0.172
4,TCCTCCAA,-0.198
5,CTGAACTC,-0.24
6,GAGTGTGC,0.0735
7,ATGACTGC,-0.146
8,ACTCCAAT,-0.137
9,GCGTGAAA,0.194
10,GTGCGATA,-0.0177
11,ATCTTCGA,-0.00056
12,CTGGCAAA,0.0557
13,AATACCCG,0.029
14,TACATAAA,0.0395
15,GAGCGCCC,0.0345
16,CACAATTC,0.169
17,CCTAGGGA,-0.131
18,GAGAATGC,0.156
19,ACAACGCC,0.311
20,TCAATAGA,-0.029
21,CCCCAAGC,0.14
22,CGGCCGAG,0.0456
23,AACCGAGC,0.14
24,ATGGCCTC,-0.146
25,AGCGAGTC,-0.182

row,Sequence,PBM E-score
1,AGTGCAAG,0.184
2,CTGAGCAG,-0.0205
3,CTTACAAC,0.215
4,CGTTTACC,0.139
5,GATCCAAC,-0.213
6,CCCTATAG,-0.0685
7,GTAGTAAC,-0.0907
8,AACGCCGC,0.47
9,AATTGCGG,0.139
10,GTTCGAGA,-0.035
11,ATAAAGCC,0.173
12,ACTGGGGG,-0.416
13,CACAAGGA,0.0226
14,AGAATATG,0.0553
15,GCCGTCAC,0.219
16,CTATTCTA,0.0643
17,AACTTCCT,0.0443
18,CAGTAGAA,-0.0821
19,CGGGTGAC,-0.069
20,GCGACGCC,0.296
21,ATCAGGGC,-0.224
22,GGAGGAAA,-0.154
23,GTGCTGCA,0.0505
24,GCGTGCGA,-0.0235
25,GCTGACGA,-0.00687

row,Sequence,PBM E-score
1,CCCGGAGA,-0.199
2,CGTGAAAA,0.204
3,CTTCATCA,-0.0498
4,CGATAGGC,0.135
5,CAGAACTC,-0.0507
6,AATGATGG,-0.0217
7,AATTCCCG,-0.0443
8,ATGGTGAC,-0.138
9,AGGGACTA,-0.205
10,AGGTATCC,-4e-05
11,ACATACAC,0.162
12,CAAGAATG,-0.0254
13,GATAACAC,0.0738
14,CGGGACAC,-0.137
15,CAATGTTA,0.00872
16,ACAGCACT,0.0191
17,CGAAGCAC,-0.0875
18,TATACATA,0.0439
19,AAAACTGG,-0.176
20,ACCTCGCC,-0.158
21,GTAGAACA,-0.156
22,GGCTGTTA,0.196
23,GGCGACCA,0.104
24,CACACAAG,0.0408
25,AACTAATT,0.163

row,Sequence,PBM E-score
1,CGTCGTTA,-0.05
2,GCTTTCTA,0.263
3,CCAGTGTA,0.0284
4,AGGATATA,0.016
5,GCTTTAGA,0.00189
6,ACAGCATG,0.00613
7,AATAGCCT,-0.0101
8,ACTGCATG,0.0776
9,TCAGTTAA,0.0358
10,GTCGGACA,-0.0595
11,TGGAGACA,-0.0591
12,TTCAAAAA,0.195
13,TAAGCTTA,0.126
14,CCATCTGA,0.0654
15,CAAGCAAA,-0.0183
16,CACACATC,-0.0672
17,ACTGGTAG,0.0139
18,CAATTTAA,0.169
19,CTGGGCAA,0.00874
